Measurements as given in the supplement of paper PMC3334620.
Whole data set: some 33,000 sequences, median “E-score (-0.5 to 0.5)” near -0.013, cut for the highest 2% near 0.3. Some of the results follow.

target: T1, Msn1 (UniProt P22148); assay: PBM E-score (8-mer binding enrichment) (E-score (-0.5 to 0.5)); higher = stronger / more preferred TF binding; most listed sequences are background and not binding sites; details: protein concentration: 200 nM; construct: GST-full length
T1 sequence: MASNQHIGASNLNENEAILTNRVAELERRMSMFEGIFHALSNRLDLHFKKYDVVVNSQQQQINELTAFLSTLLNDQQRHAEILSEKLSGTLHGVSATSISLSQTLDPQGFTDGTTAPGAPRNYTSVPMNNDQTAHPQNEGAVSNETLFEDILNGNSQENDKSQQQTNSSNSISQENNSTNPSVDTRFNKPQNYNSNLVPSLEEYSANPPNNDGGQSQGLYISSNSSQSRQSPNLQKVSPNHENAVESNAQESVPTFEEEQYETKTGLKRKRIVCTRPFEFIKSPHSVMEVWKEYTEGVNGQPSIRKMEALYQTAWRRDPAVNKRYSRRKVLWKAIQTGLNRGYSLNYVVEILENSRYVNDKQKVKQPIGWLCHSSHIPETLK
Outline: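 Yeast transcription factors carrying a GST tag, as full-length proteins or DNA-binding domains, were produced by PURExpress in vitro transcription/translation. About 100-200 nM protein was applied to universal all-10-mer Agilent arrays, double-stranded by primer extension on fresh or once-stripped slides. Bound protein was detected with fluorescent anti-GST, and scans were normalised with masliner. The Universal PBM Analysis Suite gave each ungapped eight-base word, pooled with its reverse complement, an E-score, a modified Wilcoxon-Mann-Whitney statistic.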

Row | Sequence | PBM E-score
1 | CGGCCTTA | 0.0691
2 | ACAAGTGC | -0.173
3 | CTCGAGCA | 0.0767
4 | AGCGATGC | -0.276
5 | ATTGGTAA | 0.00511
6 | GCGTGGCC | -0.227
7 | AACACCCT | -0.182
8 | ACAGATGA | -0.0451
9 | AAACCAGA | -0.12
10 | ACGGGGAA | -0.147
11 | CCAGTGTC | 0.0998
12 | GGACTGAA | 0.0835
13 | ACGGAATG | -0.0132
14 | AGCGGTTC | -0.113
15 | ACACCTAA | -0.0102
16 | CAGAAACA | 0.0552
17 | GCAAACTA | 0.154
18 | AATCCGAT | 0.249
19 | CAAAACGG | 0.114
20 | AAACCGAC | 0.0136
21 | GCTCTTCC | -0.186
22 | CCTAACCG | -0.124
23 | ATCTCTGA | -0.00064
24 | ATTCATCG | 0.0126
25 | ACACTGAG | -0.00755

Row | Sequence | PBM E-score
26 | CGTGCCGC | -0.0316
27 | ACTTGAAG | 0.127
28 | CTAAATGA | 0.137
29 | CCGCGGGC | 0.0321
30 | AAGCCCTC | -0.201
31 | TCATAAAA | 0.172
32 | AAAGTGGT | -0.0362
33 | ACACATAC | 0.139
34 | ATCAAGCC | 0.0134
35 | CAATTGCA | 0.0191
36 | GATGAGCA | 0.0845
37 | ACGGACGT | 0.0913
38 | CACAAAGC | 0.161
39 | AATAGAAA | 0.00219
40 | GTCCGCAC | 0.157
41 | ATGTGCGC | -0.0939
42 | AGGCGTAG | -0.189
43 | CCCGACCA | -0.052
44 | CGCTCGGC | -0.0854
45 | CAGTGGAG | -0.0685
46 | CGGCTTCA | -0.0614
47 | ACAAGCAG | 0.0727
48 | CACTTGCG | 0.0135
49 | CAGTGAGG | -0.251
50 | GGTTCGAA | 0.116

Row | Sequence | PBM E-score
51 | CCTCTCAA | -0.144
52 | CCCCGCAA | -0.0223
53 | CCACCTTC | -0.34
54 | CGGATTTC | 0.109
55 | GAACCCTA | 0.0189
56 | AGAGTTTC | -0.0462
57 | CAGGAGTA | -0.152
58 | AAATCTCG | 0.121
59 | TCAGGGGA | -0.0694
60 | AGTCCCAT | 0.0477
61 | TCTGTCCA | 0.363
62 | TACATGCA | 0.0757
63 | AACGAATC | 0.106
64 | CCGTGTTC | 0.169
65 | TACTCAAA | 0.0232
66 | CCAGCCTA | -0.386
67 | ACCGATCA | 0.0723
68 | ACTTTGCA | 0.119
69 | ATTGGTAC | 0.173
70 | ACCCAACT | -0.114
71 | AATTGTTA | 0.0923
72 | CAATAAAC | 0.0413
73 | AACCCCGC | -0.186
74 | CAAAAACA | 0.175
75 | AATGCTCG | 0.0488

Row | Sequence | PBM E-score
76 | CCCTTCCA | -0.255
77 | ACGATATC | -0.0752
78 | GATTGAAC | 0.0403
79 | ACATATCC | 0.233
80 | ACTGTTCC | -0.0375
81 | GAGCCTCC | -0.224
82 | TAGATGCA | -0.0693
83 | AGCTTTGC | -0.152
84 | AAATTGTC | 0.449
85 | AAGTCCCG | 0.283
86 | ACGAGAAA | 0.129
87 | AAGTTAAT | -0.0283
88 | ACGTTACA | 0.146
89 | TCTCGAAA | 0.201
90 | CGGGCTAG | -0.185
91 | GGTGGAAC | -0.235
92 | AACAGCGG | -0.0502
93 | TGCGGAAA | 0.0764
94 | AGTCGCGG | -0.0858
95 | CACTAGAG | -0.0404
96 | CACCGAGA | -0.047
97 | CCAACTGC | -0.167
98 | AAGCGGGA | -0.106
99 | ACAGCGGA | 0.0546
100 | AACCGCAC | -0.0736

Row | Sequence | PBM E-score
101 | GGGTCAGA | -0.256
102 | CTCTACAA | -0.0301
103 | AGATACAA | 0.277
104 | CATCATTA | 0.189
105 | CACAATGG | 0.0832
106 | GAGCATGC | -0.114
107 | AGCATATA | 0.0198
108 | AGCGGCGG | -0.0477
109 | TTATATAA | 0.271
110 | CCTTGATC | -0.124
111 | CGCCCCAG | -0.178
112 | ACATGAAG | 0.131
113 | CATAAACG | 0.213
114 | ACACATCG | 0.043
115 | ATAACGGC | -0.028
116 | CTGTCGCA | -0.0442
117 | ATTGCTTA | -0.0277
118 | ACCAGAAT | 0.0369
119 | ATTTGCAC | 0.125
120 | CAGCTTAG | -0.0423
121 | GGCGTCAA | -0.0643
122 | ATTTTGTG | 0.144
123 | ACCCGCAT | 0.00591
124 | GCCCGCCA | -0.199
125 | CCACAGCG | -0.034

Row | Sequence | PBM E-score
126 | ATACTCAC | 0.00337
127 | CGTACATC | 0.00439
128 | ATGAGGGG | -0.0997
129 | GAGTAAGC | -0.106
130 | GCACATGC | 0.0129
131 | GATTAGAC | 0.0588
132 | CCGGATTA | 0.0748
133 | AGCGGACC | -0.132
134 | GGTGCTAC | -0.204
135 | AAGCCAGC | -0.094
136 | CCGGCCTA | 0.0234
137 | CTTCTATC | -0.0795
138 | ATACTGTG | 0.0964
139 | ATTACTCG | 0.209
140 | ATCATTAC | 0.118
141 | ATAGTCGC | -0.0149
142 | CAACCCTA | -0.0797
143 | ATGTGAGA | 0.0507
144 | CGTGGCTC | -0.284
145 | ACCACTCA | -0.194
146 | CCGCATTC | -0.0341
147 | CCTCGCCC | -0.162
148 | CGCGGCCA | -0.123
149 | AGAACTTG | 0.0582
150 | AATGGCTG | -0.0631

Row | Sequence | PBM E-score
151 | GTAGCTTA | -0.0116
152 | CATCCTCC | -0.163
153 | ACAAGAAC | 0.268
154 | TATCTACA | 0.195
155 | CCGCCATC | -0.267
156 | GAGGTAAC | 0.0391
157 | ACGGGGCT | -0.405
158 | CTAATCAG | -0.0717
159 | GTTGATTA | 0.135
160 | CAGCACAA | 0.0371
161 | GTGAGCAC | -0.107
162 | CAGGTGCA | -0.0506
163 | CAAATCGG | 0.0712
164 | CAACATAA | 0.289
165 | CACGATCG | 0.0495
166 | AATGGGAC | 0.0849
167 | ATTATGAC | 0.129
168 | CGGGACCC | -0.265
169 | CTTGAGGA | -0.132
170 | AGCGCCCC | -0.434
171 | CTTTGTTA | 0.215
172 | CACGCTCG | -0.167
